# Data as given in PubChem BioAssay AID1508642 (National Center for Advancing Translational Sciences (NCATS), 2021).
# In all, about 43,000 compounds went through this assay and about 200 (0.47%) were called active. Inconclusive results (about 12%) are left out. Calls come from the whole dose curve; as a rule, active = well fitted cell-killing curve with a large enough effect; inconclusive = small, poorly fitted or top-dose-only effect, or effect the other way; inactive = flat fitted curve, though single readings scatter. Some of the results follow.
# Experiment: Cell viability qHTS assay in S16 Pmp22-F2sN cells; note: nearly all actives have a fitted effect of over 65% in size
# Conditions: S16 Pmp22-F2sN Schwann cells (luciferase reporters placed in the Pmp22 gene) viability, CellTiter-Glo, 24 h; series mostly up to 57.5 µM; activity change, negative = cytotoxicity: at the top concentration
# Method in brief: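 CellTiter-Glo counter-screen, qHTS, 1536-well. Cells: S16(c9) Pmp22-F2sN, 500-1,000/well in DMEM + 10% FBS. Cpd 23 nL pin transfer, 24 h, 37C/5% CO2. Read: luminescence, CCD imager.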
# % is set by controls: 0 for no effect and ±100 for the full control effect; potency is the fitted concentration of half-maximal effect.
Compound,"activity change, negative = cytotoxicity",Potency
CCc1ccc(-n2c(=O)c3c(C)c(C(=O)N(C)C)sc3n(CC(=O)Nc3cc(Cl)ccc3C)c2=O)cc1,inactive: -6.37%,–
CCC(=O)Nc1ccc(C)cc1-c1nc2ccccc2n(CC(=O)c2ccc(C)cc2)c1=O,inactive: 3.18%,–
CC(C)(C)OC(=O)N1CCC(c2c(C(=O)NCc3ccco3)cnn2-c2ccc(F)cc2F)CC1,inactive: -2.94%,–
O=C(NCCS(=O)(=O)N1CCN(c2ccc(F)cc2)CC1)c1ccccc1Br,inactive: -9.89%,–
CCOc1ccc(CC(=O)NCCc2sc(-c3cccc(F)c3)nc2C)cc1,inactive: 7.7%,–
COc1ccc(NC(=O)c2cc(=O)c3cc(C)cc(C)c3o2)cc1,inactive: -25.2%,–
Cc1nc2c(-c3ccccc3)c(C)[nH]n2c(=O)c1Cc1ccc(Br)cc1,–,active: 10 µM
CCOc1cccc2sc(NC(=O)c3ccc(S(=O)(=O)N4CCCCC4)cc3)nc12,inactive: 0.0794%,–
CCOC(=O)c1c(-c2ccc(Br)cc2)csc1NC(=O)c1ccc(C(C)(C)C)cc1,inactive: 4.01%,–
Cc1ccc(CNC(=O)c2cc(=O)c3cc(C)c(C)cc3o2)cc1,inactive: 2.2%,–
COc1ccc(CNC(=O)C2CCCN(C(=O)c3cnn(-c4ccc(F)cc4)c3-n3cccc3)C2)cc1 (stereo not drawn),inactive: 0.778%,–
CC1CCN(S(=O)(=O)c2ccc3c(ccc(=O)n3CC(=O)NCc3ccccc3)c2)CC1,inactive: -8.53%,–
CCCS(=O)(=O)c1nc(S(=O)(=O)c2ccc(C)cc2)c(NCC(C)C)s1,inactive: -1.46%,–
Cc1ccc(CCNC(=O)c2oc(=O)c3ccccc3c2-c2ccc(C)cc2)cc1,inactive: 26.5%,–
CC(CNc1nc2ccccc2c2nc(-c3ccccc3)nn12)c1ccccc1 (stereo not drawn),inactive: 24.7%,–
COc1ccc(NC(=O)c2cc3c(=O)n(C)c4cc(Cl)ccc4c3s2)cc1Cl,inactive: 1.48%,–
CC(=O)Nc1cccc(NC(=O)CSc2cn(CC(=O)N3CCCC3)c3ccccc23)c1,inactive: 10.3%,–
CCN1CCN(Cc2nc3cc(NC(=O)c4cccc([N+](=O)[O-])c4)ccc3n2CC)CC1,inactive: -2.18%,–
CCc1ccc(NC(=O)Cn2c(C(=O)OC)cc3oc(C)cc32)cc1,inactive: -6.48%,–
Cc1ccc(C)c(NC(=O)CSc2nnc(NC(=O)Nc3ccccc3)s2)c1,inactive: 5.17%,–
CCCCCCC(=O)Nc1cc2nc3c(nc2cc1C)c(=O)n(C)c(=O)n3C,inactive: -0.446%,–
COc1ccc(NC(=O)CN2CCN(C3CCCCC3)C(=O)C2=O)cc1,inactive: 21.9%,–
CCc1ccc(C2CC(=O)c3c([nH]c(C(=O)OC4CCCCCC4)c3C)C2)cc1 (stereo not drawn),inactive: 4.9%,–
Cc1ccccc1OCC(=O)Nc1ccc2[nH]c(=O)sc2c1,inactive: -6.4%,–

Compound,"activity change, negative = cytotoxicity",Potency
CCOC(=O)N1CCC(NC(=O)c2ccc3c(c2)N(Cc2ccc(F)cc2)C(=O)c2ccccc2S3=O)CC1 (stereo not drawn),inactive: -11.2%,–
COc1ccc(CCNC(=O)c2nc(SCc3ccc(F)cc3)ncc2Cl)cc1OC,inactive: -1.73%,–
CCOC(=O)C1CCN(S(=O)(=O)c2cc(-c3cc(C)no3)ccc2OC)CC1,inactive: -3.62%,–
COc1ccc(C)cc1Nc1c2c(nc3ccccc13)CCC2,inactive: -14.9%,–
O=C(COc1ccccc1)Nc1nnc2n1CCS2,inactive: 7.04%,–
CCOC(=O)c1c(C)[nH]c(C)c1S(=O)(=O)NCC(=O)Nc1cc(Cl)ccc1OC,inactive: 21.9%,–
CC(=O)c1ccc(NC(=O)COc2ccccc2-c2nc(C(C)C)no2)cc1,inactive: 2.09%,–
COc1cc(OC)cc(-c2nc3nc(C)c(CCC(=O)Nc4ccccc4)c(C)n3n2)c1,inactive: 22.9%,–
Cc1ccc(NC(=O)C(Cc2ccccc2)NS(=O)(=O)c2ccc3c(c2)oc(=O)n3C)cc1C (stereo not drawn),inactive: 0.896%,–
CC(C)(C)C(=O)Cn1c(=O)n(CCCCCC(=O)NCc2ccccc2Cl)c(=O)c2sccc21,inactive: -16.4%,–
COCCn1c(SCC(=O)c2c[nH]c3ccccc23)nc2cc(C(=O)NCC(C)C)ccc2c1=O,inactive: 1.15%,–
Cc1ccc(O)c(NC(=O)c2nc3nc(C)cc(C(F)F)n3n2)c1,inactive: 17.4%,–
O=c1oc2ccc3ccccc3c2cc1-c1nnc(Nc2cc(C(F)(F)F)ccc2Cl)s1,inactive: -21.2%,–
Cc1ccc(N(CC(=O)Nc2ccc(OC(F)(F)F)cc2)S(=O)(=O)c2c(C)noc2C)cc1,inactive: 10%,–
Cc1[nH]c2c(C)cccc2c1CCNC(=O)c1cc2ccccc2oc1=O,inactive: 5.81%,–
CCc1cccc(C)c1Nc1c(-c2cccc(O)c2)nc2sccn12,inactive: 8.1%,–
O=S(=O)(c1cccc(Cl)c1)c1nnn2c1nc(NC1CCCC1)c1sccc12,inactive: -0.771%,–
COC(=O)c1ccc(NC(=O)C2CCN(S(=O)(=O)c3ccc4c(c3)CCCN4C(C)=O)CC2)cc1,inactive: -4.88%,–
CCc1nnc2n1N(C(C)=O)C(c1ccc(C(C)(C)C)cc1)=C(C(C)=O)S2,inactive: -20.9%,–
Cc1nc(N2CCCC2)ncc1C(=O)NCc1ccccc1Cl,inactive: -0.684%,–
CCc1ccc(CNC(=O)c2cc3c(s2)-c2ccccc2OC3)cc1,inactive: 13.3%,–
COc1cc(NC(=O)CSc2nc3nc(C)c(Cc4ccccc4)c(C)n3n2)cc(OC)c1OC,inactive: -0.0267%,–
O=C(Cn1ncc2c3ccccc3n(Cc3ccc(Cl)cc3)c2c1=O)NC1CCCCCC1,inactive: 3.48%,–
CCc1ccc(CNC(=O)c2cnc3sc(N(CC)CC)nn3c2=O)cc1,inactive: -8.75%,–
